Hit rate of the full screen: of about 100,000 compounds, about 250 (0.25%) were called active. Inconclusive means that the source gave no clear call. Such entries were picked first, then a sample of the others. Calls come from the whole dose curve; as a rule, active = well fitted inhibition curve with a large enough effect; inconclusive = small, poorly fitted or top-dose-only effect; inactive = flat fitted curve, though single readings scatter. No potency is given beside an inconclusive call; the fits are too rough.
These molecules were tested against Alanine aminotransferase 2 (Homo sapiens) (UniProt Q8TD30) (assay: Primary qHTS assay for inhibitors of Glutamate pyruvate transaminase 2 (GPT2)). Details: Recombinant GPT2, coupled pyruvate oxidase/HRP Amplex Red fluorescence; activity change, negative = inhibition: at 57.7 µM (top of the series) unless noted; series mostly up to 57.7 µM.
Outline: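 Inhibition is scored from Amplex Red fluorescence generated when pyruvate oxidase and HRP act on pyruvate released by GPT2. Reactions contain 10ng/uL enzyme, 250uM a-KG and 2mM L-alanine and run 30 min at room temperature.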
% is set by controls: 0 for no effect and ±100 for the full control effect; potency is the fitted concentration of half-maximal effect; tags give direction and shape of the fitted curve.
Note: nearly all actives have a fitted effect of over 60% in size.

Sequence of UniProt Q8TD30 (Q8TD30 whole entry, looked up): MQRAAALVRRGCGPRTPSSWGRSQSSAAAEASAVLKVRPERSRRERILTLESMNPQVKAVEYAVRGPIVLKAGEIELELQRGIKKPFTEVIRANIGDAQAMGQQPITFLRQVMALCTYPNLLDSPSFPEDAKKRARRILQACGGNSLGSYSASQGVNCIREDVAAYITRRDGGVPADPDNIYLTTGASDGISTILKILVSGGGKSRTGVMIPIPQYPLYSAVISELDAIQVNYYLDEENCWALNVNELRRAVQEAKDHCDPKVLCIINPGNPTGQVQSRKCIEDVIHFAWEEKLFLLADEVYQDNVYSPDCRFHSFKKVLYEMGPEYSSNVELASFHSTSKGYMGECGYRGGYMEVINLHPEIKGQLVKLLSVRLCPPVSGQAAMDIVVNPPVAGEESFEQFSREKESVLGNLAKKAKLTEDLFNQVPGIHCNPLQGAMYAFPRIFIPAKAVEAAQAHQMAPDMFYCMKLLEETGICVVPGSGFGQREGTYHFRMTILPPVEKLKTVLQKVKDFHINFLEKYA

| SMILES | Potency | outcome | activity change, negative = inhibition |
| --- | --- | --- | --- |
| O=C1CCN(CC(O)Cc2ccccc2)c2ccccc2CCN1C/C=C/c1ccccc1 (stereo not drawn) | inconclusive [inhibitor, single point] | – | – |
| COCCN(Cc1nccs1)C(=O)c1oc2ccc(C)cc2c1C | inconclusive [inhibitor, single point] | – | – |
| CN1CCN(c2ccc3ncc(Nc4ccc(Cl)c(C(F)(F)F)c4)n3n2)CC1 | inconclusive [inhibitor, single point] | – | – |
| CC[C@H]1CN(C(=O)Nc2cccc(OC)c2)CC[C@H]1CC(=O)NCc1ccccc1 | – | inactive [at 88.5 µM] | – |
| CCC(CC)Nc1ncnc2c1CN(C1CCCNCC1)C(=O)CN2C (stereo not drawn) | inconclusive [inhibitor, full curve, poor fit] | – | – |
| COC(=O)[C@@H]1Cc2ncn(C)c2CN1S(=O)(=O)c1ccc(F)cc1 | – | – | inactive: 2.42% [at 88.5 µM] |
| Cc1ccc(NC(=O)N2Cc3[nH]cnc3C[C@H]2c2nc(-c3ccc4ccccc4c3)no2)cc1 | inconclusive [inhibitor, partial curve, poor fit] | – | – |
| CC(C)N1C(=O)C2(CCN(C(=O)Cc3c[nH]c4ccccc34)CC2)C1c1ccccc1 (stereo not drawn) | – | inactive | – |
| CN(C)Cc1cn(C[C@H]2C[C@@H](NC(=O)c3ccc4c(c3)OCO4)[C@H](O)[C@@H]2O)nn1 | inconclusive [inhibitor, single point] | – | – |
| CC(=O)NC(CS)C(=O)O (stereo not drawn) | inconclusive [inhibitor, full curve, poor fit] | – | – |
| CN(Cc1ccccc1)C(=O)CC1CCN(C(=O)Nc2ccccc2)C1 (stereo not drawn) | – | inactive | – |
| Nc1ccc(-c2ccc3ccccc3n2)cc1 | inconclusive [inhibitor, single point] | – | – |
| Cc1oc2c(c1C(=O)N(C)C)CN(S(=O)(=O)c1ccccc1)CC2 | inconclusive [inhibitor, partial curve, poor fit] | – | – |
| C[C@H]1COC2=C1C(=O)C(=O)c1c2ccc2c1CCCC2(C)C | active: 17.2 µM | – | – |
| NC(=O)Cc1cccc(C(=O)c2ccccc2)c1N | inconclusive [inhibitor, partial curve] | – | – |
| Cc1ccc(Nc2ccnc(N3CCCN(C(=O)C4CCCC4)C3)n2)cc1 | – | – | inactive: -12.3% |
| O=C(CN1CCCc2nc(C3CC3)ncc2C1=O)NCc1cccs1 | – | – | inactive: -2.98% |
| COc1ccc(C(=O)N2CC[C@H]3CC(=O)N(c4ccccc4)CC[C@H]3C2)cc1 | inconclusive [inhibitor, single point] | – | – |
| CC1=NS(=O)(=O)N(C)C=C1C(=O)OCc1nc(-c2ccccc2)no1 | – | inactive | – |
| O=C1CC2(CCN(CC3CC3)CC2)Oc2ccccc2N1c1ccccc1 | – | inactive | – |
| CN(C)c1ccc2c(c1)CN(C(=O)c1cnn(C)c1)CCO2 | active: 1 µM | – | – |
| O=C(O)c1cncc(N2CCC3(CC2)CNC(C(=O)O)C3)n1 (stereo not drawn) | – | – | inactive: 2.16% |
| Cc1ccc(-c2cc3c(=O)n(CCNC(=O)c4nn(C)c5ccccc45)ccn3n2)c(C)c1 | – | – | inactive: -0.693% |

| SMILES | Potency | outcome | activity change, negative = inhibition |
| --- | --- | --- | --- |
| COCCN(C)C[C@H]1C[C@@H](CO)CN(C(=O)c2ccc(C)c(Cl)c2)C1 | inconclusive [inhibitor, single point] | – | – |
| O=C(c1cccs1)N1CCC2(CC1)SCC(=O)N2c1ccc(Cl)cc1 | inconclusive [inhibitor, single point] | – | – |
| O=c1n(-c2ccc(Cl)cc2)nc2n1CCN(CC1CC1)C2 | – | – | inactive: -9.07% [at 88.5 µM] |
| Cn1cccc1C(=O)N1C[C@@H](NC(=O)Nc2ccc(F)cc2F)C[C@H]1C(=O)N[C@H](Cc1c[nH]c2ccccc12)C(N)=O | inconclusive [inhibitor, single point] | – | – |
| O=C1Cc2c(-c3ccsc3)n[nH]c2CN1Cc1ccccc1 | inconclusive [inhibitor, full curve, poor fit] | – | – |
| COCc1nc(C2CCN(C(=O)c3cccn3C)C2)no1 (stereo not drawn) | inconclusive [inhibitor, single point] | – | – |
| O=C1CC2(CCN(C(=O)C3CCCN(C(=O)c4ccccc4Cl)C3)CC2)Oc2ccccc2N1 (stereo not drawn) | – | – | inactive: 2.69% |
| Cc1ccc([S+](=O)([O-])N2CCc3nc(-c4ccccc4)nc(-c4ccc(Cl)cc4)c3C2)cc1 | inconclusive [inhibitor, single point] | – | – |
| O=C(c1ccc(C(F)(F)F)cc1)N1CCCC(C(=O)N2CCC(N3CCCC3=O)CC2)C1 (stereo not drawn) | inconclusive [inhibitor, partial curve, poor fit] | – | – |
| O=C(Cc1c(F)cccc1Cl)N[C@@H]1CCOC[C@H]1OCCO | inconclusive [inhibitor, single point] | – | – |
| CCCN(C)c1nccnc1OC1CCN(C(=O)C2CCCCC2)C1 (stereo not drawn) | – | – | inactive: -23.2% |
| Cc1ccccc1-c1cnc2[nH]cc(CC(=O)N3CCCC3)c2c1 | – | – | inactive: 0.269% [at 88.5 µM] |
| C/C=C/C=C/C(O)=C1\C(=O)[C@]2(C)C3C(C(=O)CC/C=C/C)=C(O)C4(C)C1[C@]1(C)O[C@@]4(O)[C@@]3(C)O[C@@]12O | inconclusive [inhibitor, partial curve, poor fit] | – | – |
| COc1ccc(C2Cn3nnc(-c4noc(Cc5cccc(F)c5)n4)c3CO2)cc1 (stereo not drawn) | inconclusive [inhibitor, single point] | – | – |
| Cc1ccc(C2(O)CCN(c3cc(C(F)(F)F)ccn3)CC2)nc1 | inconclusive [inhibitor, partial curve, poor fit] | – | – |
| O=C(c1ccsc1)N1CCC2(CC1)CC(N1CCOCC1)CCO2 (stereo not drawn) | – | inactive | – |
| CN(C)C/C=C/C(=O)Nc1cccc(C(=O)Nc2ccc(Nc3nccc(-c4cccnc4)n3)cc2)c1 | inconclusive [inhibitor, single point] | – | – |
| CCn1ncc(N2CCCC(CC(=O)NCc3ccc(C)cc3)C2)cc1=O (stereo not drawn) | – | inactive | – |
| COc1ccc(CNC(=O)C2CCCCN2Cc2ccc(-c3ccsc3)cc2)cc1OC (stereo not drawn) | – | – | inactive: -11.3% |
| Fc1cccc(Nc2cnc3ccc(-c4ccccc4)nn23)c1 | inconclusive [inhibitor, full curve, poor fit] | – | – |
| CCOc1cccc(-c2noc(-c3nnn4c3COC(c3ccc(Cl)cc3)C4)n2)c1 (stereo not drawn) | inconclusive [inhibitor, single point] | – | – |
| Cc1ccc(-c2noc([C@@H]3C[C@H](NS(=O)(=O)c4ccc(C)cc4)CN3C)n2)cc1 | inconclusive [inhibitor, single point] | – | – |
| Cc1noc(C)c1S(=O)(=O)N1CC(N(C)Cc2cccnc2)C1 | inconclusive [inhibitor, full curve, poor fit] | – | – |

| SMILES | Potency | outcome | activity change, negative = inhibition |
| --- | --- | --- | --- |
| CC1(C)C2CCC(CO[C@@H]3O[C@H](CO[C@@H]4OC[C@](O)(CO)[C@H]4O)[C@@H](O)[C@H](O)[C@H]3O)C1C2 (stereo partly drawn) | inconclusive [inhibitor, single point] | – | – |
| COc1cccc(CN2CCc3c(cc(C(=O)Nc4cc(C)ccc4C)n3C)C2)c1 | – | – | inactive: -8.16% |
| COc1ccc(-c2cc(N3CCCN(C(=O)c4ccco4)CC3)n[nH]2)cc1 | inconclusive [inhibitor, single point] | – | – |
| O=C1CC(c2ccccc2)N(C(=O)CNC(=O)c2ccc3cc[nH]c3c2)CCCCCN1 (stereo not drawn) | – | – | inactive: -9.47% |
| COc1ccccc1-c1[nH]nc2ncc(-c3cccc(F)c3)nc12 | – | – | inactive: -5.5% [at 88.5 µM] |
| O=C(COc1ccc(F)cc1)N1CCCN(c2cc(-c3ccc(Br)cc3)[nH]n2)CC1 | inconclusive [inhibitor, single point] | – | – |
| C=CCNC(=O)[C@@H]1Cc2cn(Cc3ccncc3)c3cccc(c23)[C@H](CC(C)C)N1 | inconclusive [inhibitor, single point] | – | – |
| COc1ccc(NC(=O)Cn2cccc2-c2nc(-c3ccccc3)no2)cc1OC | – | – | inactive: 1.14% |
| COc1ccccc1NC(=O)c1cc2c(N3CCSCC3)nc(C)cn2n1 | – | – | inactive: -1.98% |
| O=C(CN1C(=O)NC2(CCOCC2)C1=O)Nc1ccccc1F | inconclusive [inhibitor, single point] | – | – |
| COCC(=O)NC1CCN(c2nccc(Nc3ccccc3Cl)n2)CC1 | – | – | inactive: 1.18% |
| O=C(CC(c1cccc([N+](=O)[O-])c1)c1c[nH]c2ccccc12)NCc1ccccc1 (stereo not drawn) | inconclusive [inhibitor, single point] | – | – |
| COCC(=O)Nc1ccc(-c2noc([C@@H]3CCCN3Cc3ccc(OC(F)(F)F)cc3)n2)cn1 | inconclusive [inhibitor, partial curve, poor fit] | – | – |
| COc1ccc(-c2cnc(NCc3ccccc3)c3c2CCO3)cc1 | inconclusive [inhibitor, single point] | – | – |
| N[C@H](Cc1ccccc1)C(=O)N1CCC2(CC1)Nc1ccccc1NC2=O | – | inactive [at 11.5 µM] | – |
| CC12CCC3C(C)(C)C(O)CCC3(C)C1Cc1c(oc(C(=O)O)cc1=O)O2 (stereo not drawn) | inconclusive [inhibitor, partial curve, poor fit] | – | – |
| CCN1C(=O)Cc2ccccc2C1C(=O)NCc1ccc(Cl)cc1 (stereo not drawn) | inconclusive [inhibitor, single point] | – | – |
| Cn1cc(-c2cc(=O)c3ccnc(NC4CCOCC4)c3o2)cn1 | inconclusive [inhibitor, single point] | – | – |
| CN1CCC(NC(=O)Cc2c[nH]c3ncc(-c4ccccc4)cc23)CC1 | – | – | inactive: -19.8% [at 88.5 µM] |
| CC(C)N1C(=O)CO[C@H]2CCN(Cc3ccncc3Cl)CC[C@@H]21 | inconclusive [inhibitor, single point] | – | – |
| COc1ccc(NC2CCCN(C(=O)c3cc(C(C)=O)n[nH]3)C2)cc1OC (stereo not drawn) | inconclusive [inhibitor, single point] | – | – |
| CCOc1cc(=O)n2c(c1C(=O)NCCCOC(C)C)CCCCC2 | inconclusive [inhibitor, full curve, poor fit] | – | – |
